According to article PMC5356852:
These are yes or no findings as the source states them, for the method shown. Binding seen in cells or lysates may run through a third protein. Some entries that bind do so weakly or less than the wild type. Where a sequence is shown, tags or fusion partners need not be part of it.

Key:
[1] = molecular target: endogenous MTA1 proteins of HEK293T cells (human (endogenous in HEK293T)) (UniProt Q13330); assay: co-IP; HEK293T transfected with wt or ΔMKHEP FLAG-HIC1; total extracts immunoprecipitated with anti-MTA1 antibodies (endogenous MTA1); blots MTA1 and FLAG
[2] = molecular target: Myc-MTA1 K509R, non-SUMOylatable mutant (human) (UniProt Q13330); assay: co-IP; HEK293T transfected with HIC1 and Myc-MTA1 vectors (wt or mutants); lysates immunoprecipitated with anti-c-myc antibodies (MTA1); blot anti-HIC1; Figures 5B-5D ('similar' experiments)
[3] = molecular target: Myc-MTA1, wild type (human) (UniProt Q13330); assay: as above
[4] = molecular target: Myc-MTA1 AAA (I711A/V712A/I713A), SIM-deficient mutant (human) (UniProt Q13330); assay: as above
FLAG-MTA3 = molecular target: T1, FLAG-MTA3 (UniProt Q9BTC8); assay: co-IP; HEK293T transfected with FLAG-HIC1 and FLAG-MTA3; 16 hours 20 μM etoposide or DMSO; lysis in IPH buffer; IP with anti-MTA3 antibodies; blot anti-FLAG
T1 sequence: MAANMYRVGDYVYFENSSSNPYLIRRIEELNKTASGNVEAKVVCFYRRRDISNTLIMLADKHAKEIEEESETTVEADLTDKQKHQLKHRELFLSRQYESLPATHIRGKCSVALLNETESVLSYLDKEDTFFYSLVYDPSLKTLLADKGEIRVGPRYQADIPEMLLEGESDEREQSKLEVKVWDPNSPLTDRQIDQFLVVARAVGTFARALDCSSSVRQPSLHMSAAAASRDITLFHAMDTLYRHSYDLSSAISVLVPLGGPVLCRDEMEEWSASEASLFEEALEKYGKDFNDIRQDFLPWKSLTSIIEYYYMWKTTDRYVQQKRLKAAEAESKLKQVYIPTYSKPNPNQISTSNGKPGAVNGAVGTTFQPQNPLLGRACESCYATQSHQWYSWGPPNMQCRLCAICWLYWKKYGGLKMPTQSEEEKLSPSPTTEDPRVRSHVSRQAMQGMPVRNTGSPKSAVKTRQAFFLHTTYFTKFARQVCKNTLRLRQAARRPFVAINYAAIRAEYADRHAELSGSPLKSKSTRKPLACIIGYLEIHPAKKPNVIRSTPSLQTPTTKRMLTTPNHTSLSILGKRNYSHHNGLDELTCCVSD

| Binder | binding [1] | binding [2] | binding [3] | binding [4] | binding (FLAG-MTA3) |
| --- | --- | --- | --- | --- | --- |
| FLAG-HIC1 (hypermethylated in cancer 1), wild type, full length (protein, UniProt Q14526-2 1-714) MLDTMEAPGHSRQLLLQLNNQRTKGFLCDVIIVVQNALFRAHKNVLAASSAYLKSLVVHDNLLNLDHDMVSPAVFRLVLDFIYTGRLADGAEAAAAAAVAPGAEPSLGAVLAAASYLQIPDLVALCKKRLKRHGKYCHLRGGGGGGGGYAPYGRPGRGLRAATPVIQACYPSPVGPPPPPAAEPPSGPEAAVNTHCAELYASGPGPAAALCASERRCSPLCGLDLSKKSPPGSAAPERPLAERELPPRPDSPPSAGPAAYKEPPLALPSLPPLPFQKLEEAAPPSDPFRGGSGSPGPEPPGRPDGPSLLYRWMKHEPGLGSYGDELGRERGSPSERCEERGGDAAVSPGGPPLGLAPPPRYPGSLDGPGAGGDGDDYKSSSEETGSSEDPSPPGGHLEGYPCPHLAYGEPESFGDNLYVCIPCGKGFPSSEQLNAHVEAHVEEEEALYGRAEAAEVAAGAAGLGPPFGGGGDKVAGAPGGLGELLRPYRCASCDKSYKDPATLRQHEKTHWLTRPYPCTICGKKFTQRGTMTRHMRSHLGLKPFACDACGMRFTRQYRLTEHMRIHSGEKPYECQVCGGKFAQQRNLISHMKMHAVGGAAGAAGALAGLGGLPGVPGPDGKGKLDFPEGVFAVARLTAEQLSLKQQDKAAAAELLAQTTHFLHDPKVALESLYPLAKFTAELGLSPDKAAEVLSQGAHLAAGPDGRTIDRFSPT | binds | binds | binds | no binding | binds |
| FLAG-HIC1 ΔMKHEP deletion mutant (amino acids 305-326 deleted) (protein, UniProt Q14526-2) MLDTMEAPGHSRQLLLQLNNQRTKGFLCDVIIVVQNALFRAHKNVLAASSAYLKSLVVHDNLLNLDHDMVSPAVFRLVLDFIYTGRLADGAEAAAAAAVAPGAEPSLGAVLAAASYLQIPDLVALCKKRLKRHGKYCHLRGGGGGGGGYAPYGRPGRGLRAATPVIQACYPSPVGPPPPPAAEPPSGPEAAVNTHCAELYASGPGPAAALCASERRCSPLCGLDLSKKSPPGSAAPERPLAERELPPRPDSPPSAGPAAYKEPPLALPSLPPLPFQKLEEAAPPSDPFRGGSGSPGPEPPGRPDGRERGSPSERCEERGGDAAVSPGGPPLGLAPPPRYPGSLDGPGAGGDGDDYKSSSEETGSSEDPSPPGGHLEGYPCPHLAYGEPESFGDNLYVCIPCGKGFPSSEQLNAHVEAHVEEEEALYGRAEAAEVAAGAAGLGPPFGGGGDKVAGAPGGLGELLRPYRCASCDKSYKDPATLRQHEKTHWLTRPYPCTICGKKFTQRGTMTRHMRSHLGLKPFACDACGMRFTRQYRLTEHMRIHSGEKPYECQVCGGKFAQQRNLISHMKMHAVGGAAGAAGALAGLGGLPGVPGPDGKGKLDFPEGVFAVARLTAEQLSLKQQDKAAAAELLAQTTHFLHDPKVALESLYPLAKFTAELGLSPDKAAEVLSQGAHLAAGPDGRTIDRFSPT | binds weakly |  | binds weakly |  |  |
